From article PMC11784200, “Insights into antibiotic resistance promoted by quinolone exposure” (Antimicrobial Agents and Chemotherapy, 2024)
In brackets after ≈: the same amount, converted by molar mass.

How the values were obtained:
Type in all cases: cell-based
E. coli MG1655 [1] = experiment: Broth-based MIC; conditions: for MIC: Escherichia coli
Procedure: (§1) Minimum inhibitory concentration (MIC) values were determined in triplicate as described ([55]). […] All compounds were purchased from Sigma.

E. coli MG1655 [2] = experiment: microbe, parasite or virus in culture; conditions: for MIC: Escherichia coli, read-out: Solid-agar MIC
Procedure: as §1

E. coli MG1655 [3] = conditions: for Antibiotic resistance induced by sub-MIC treatment with the compound: E. coli MG1655, 0.25×, 0.5×, 1× MIC, 24 h
E. coli MG1655 [4] = system: E. coli MG1655
[5] = E. coli MG1655, read-out: Broth-based MIC
[6] = treatment with the compound, E. coli MG1655

| SMILES | MIC (E. coli MG1655 [1]; [5]) | MIC (E. coli MG1655 [2]) | further results |
| --- | --- | --- | --- |
| CC1(C)S[C@@H]2[C@H](NC(=O)[C@H](N)c3ccccc3)C(=O)N2[C@H]1C(=O)O [AMP, ampicillin] | 4 µg/mL (≈ 11.4 µM) | 4 µg/mL (≈ 11.4 µM) | Frequencies of resistance, fold lower than that seen with CIP (E. coli MG1655 [3]; [6]): about 100 fold |
| O=C(N[C@H](CO)[C@H](O)c1ccc([N+](=O)[O-])cc1)C(Cl)Cl [CHL, chloramphenicol] | 4 µg/mL (≈ 12.4 µM) | 4 µg/mL (≈ 12.4 µM) | Antibiotic resistance induced by sub-MIC treatment with the compound (E. coli MG1655 [3]): resistance to the same antibiotic administered during treatment |
| O=C(O)c1cn(C2CC2)c2cc(N3CCNCC3)c(F)cc2c1=O [CIP, ciprofloxacin] | 0.016 µg/mL (≈ 0.0483 µM) | 0.016 µg/mL (≈ 0.0483 µM) | MIC (E. coli MG1655 [1]; broth-based, MG1655 wild type, read-out: MIC): 0.016 µg/mL (≈ 0.0483 µM) |
| CO[C@H]1[C@H](OC(=O)c2ccc(C)[nH]2)[C@H](O)[C@@H](Oc2ccc3c(O)c(NC(=O)c4c[nH]c(C(=O)Nc5c(O)c6ccc(O[C@H]7OC(C)(C)[C@@H](OC)[C@H](OC(=O)c8ccc(C)[nH]8)[C@@H]7O)c(C)c6oc5=O)c4C)c(=O)oc3c2C)OC1(C)C [COU, coumermycin A1] | 16 µg/mL (≈ 14.4 µM) | – | Frequency of KAN resistance, fold lower than that seen with CIP (E. coli MG1655 [3]; [6]): 10 fold |
| NC[C@H]1O[C@H](O[C@H]2[C@H](O)[C@@H](O[C@H]3O[C@H](CO)[C@@H](O)[C@H](N)[C@H]3O)[C@H](N)C[C@@H]2N)[C@H](O)[C@@H](O)[C@@H]1O [KAN, kanamycin] | – | – | Broth-based MIC (E. coli MG1655 [1]; E. coli MG1655): 4 µg/mL; Solid-agar MIC (E. coli MG1655 [2]): 6 µg/mL |
| CO[C@@]12[C@H](COC(N)=O)C3=C(C(=O)C(C)=C(N)C3=O)N1C[C@@H]1N[C@@H]12 [MMC, mitomycin C] | 2 µg/mL (≈ 5.98 µM) | 1.5 µg/mL (≈ 4.49 µM) | CHL-resistant colonies after exposure (E. coli MG1655 [4]): CHL-resistant colonies were obtained |
| COc1c(N2C[C@@H]3CCCN[C@@H]3C2)c(F)cc2c(=O)c(C(=O)O)cn(C3CC3)c12 [MXF, moxifloxacin] | 0.032 µg/mL (≈ 0.0797 µM) | – | – |
| CCn1cc(C(=O)O)c(=O)c2cc(F)c(N3CCNCC3)cc21 [NOR, norfloxacin] | 0.032 µg/mL (≈ 0.1 µM) | 0.128 µg/mL (≈ 0.401 µM) | – |
| CCn1cc(C(=O)O)c(=O)c2cc3c(cc21)OCO3 [OXO, oxolinic acid] | 0.4 µg/mL (≈ 1.53 µM) | 0.4 µg/mL (≈ 1.53 µM) | Antibiotic resistance induced by sub-MIC treatment with the compound (E. coli MG1655 [3]): increased frequency of resistance to KAN, TET, AMP, CHL, CIP, and OXO |
| CO[C@H]1/C=C/O[C@@]2(C)Oc3c(C)c(O)c4c(O)c(c(/C=N/N5CCN(C)CC5)c(O)c4c3C2=O)NC(=O)/C(C)=C\C=C\[C@H](C)[C@H](O)[C@@H](C)[C@@H](O)[C@@H](C)[C@H](OC(C)=O)[C@@H]1C [RIF, rifampin] | – | 32 µg/mL (≈ 38.9 µM) | – |
| [H]/N=C(/N)N[C@H]1[C@H](O)[C@@H](O)[C@H](O[C@@H]2O[C@@H](C)[C@](O)(C=O)[C@H]2O[C@@H]2O[C@@H](CO)[C@H](O)[C@@H](O)[C@@H]2NC)[C@@H](N/C(N)=N\[H])[C@@H]1O [STR, streptomycin] | – | 24 µg/mL (≈ 41.3 µM) | – |
| CN(C)[C@@H]1C(O)=C(C(N)=O)C(=O)[C@@]2(O)C(O)=C3C(=O)c4c(O)cccc4[C@@](C)(O)[C@H]3C[C@@H]12 [TET, tetracycline] | 1.2 µg/mL (≈ 2.7 µM) | 1.2 µg/mL (≈ 2.7 µM) | – |
| Oc1cc(Cl)ccc1Oc1ccc(Cl)cc1Cl [TRI, triclosan] | – | 0.08 µg/mL (≈ 0.276 µM) | – |
